Patent publication EP0643964A2 (priority 1993, dated 1995)

Test system: acute viral A hepatitis
Conditions: a week later

CCN(CC)CC(=O)Nc1c(C)cccc1C [lidocaine]
Jaundice (4 patients, 5 ml 2% i.v. once a day 7 days): disappearance of jaundice in those 2 patients who presented it | Bilirubin level (serum): decreased, but not to normal levels | LDH, GOT, GPK, glucose and cholesterol values (serum): among those considered normal
